Among all 410,000 compounds or so, about 5,000 (1.2%) were called active. Inconclusive results, whose numbers are uncertain, are shown with a selection of clear calls. Calls come from the whole dose curve; as a rule, active = well fitted inhibition curve with a large enough effect; inconclusive = small, poorly fitted or top-dose-only effect; inactive = no such curve, though single readings can be large or run the other way. Potencies of inconclusive entries are doubtful fits and often do not repeat.
Assay: qHTS for Inhibitors of TGF-b; note: nearly all actives have a fitted effect of over 65% in size
Conditions: HepG2 CAGA-GFP TGF-b/SMAD3 reporter, GFP fluorescence, 18 h, TGF-beta stimulated, 500 pg/mL final; series mostly up to 46.1 µM
Method in brief: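 HEPG2 CAGA-GFP reporter cells (1000/well, DMEM with 1% FBS) received compounds, then recombinant TGF-beta at 500 pg/mL final for 18 hours at 37 degrees C. Per-cell GFP summed per well was normalised to unstimulated and stimulated DMSO controls before curve fitting.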
Potency is the fitted concentration of half-maximal effect; tags give direction and shape of the fitted curve.

For `Cc1c(C(=O)NCc2ccc(F)cc2)sc2nc(-c3ccccc3)cn12`, which Potency is on record?
Its Potency is “inactive”.

For `O=C(C1CC1)N1CCN(c2ccnc3cc(Cl)ccc23)CC1`, which Potency is on record?
The Potency was inconclusive: 35.5 µM [inhibitor, single point].

Which Potency does the source give for `COc1ccc(OC)c(C(=O)c2ccc(C(=O)Nc3ccccc3)cc2)c1` here?
Its Potency is “inactive”.

For `COc1cc(-c2nc3cccc(C)n3c2Nc2ccc3c(c2)OCCO3)ccc1O`, which Potency is on record?
Its Potency is “inactive”.

Which Potency does the source give for `O=C(Nc1cccc(F)c1)c1cccnc1NCCc1ccccc1` here?
Its Potency is inconclusive: 11.2 µM [inhibitor, single point].

For `O=C(N=Nc1c(O)n(C2OC(=O)c3ccccc32)c2ccccc12)c1ccc(O)cc1` (stereo not drawn), which Potency is on record?
The Potency was “inactive”.

For `O=C(N/N=C/c1cc(Br)ccc1O)c1cccc(N2CCCC2=O)c1`, which Potency is on record?
The Potency was inconclusive: 3.16 µM [inhibitor, single point].

Which Potency does the source give for `C/C(=N\N1C(=O)c2ccccc2NC1c1ccco1)c1ccccc1O` (stereo not drawn) here?
Its Potency is inconclusive: 4.47 µM [inhibitor, full curve, poor fit].

With `Cc1ccc(S(=O)(=O)N2CCCCC2)cc1NC(=S)NC(=O)c1ccco1` as the molecule, how does the Potency read?
The Potency was inconclusive: 35.5 µM [inhibitor, single point].

Which Potency does the source give for `CCN(CC)CCCNC(=S)N(Cc1cccs1)Cc1cc2cc3c(cc2[nH]c1=O)OCCO3` here?
The Potency was inconclusive: 3.16 µM [inhibitor, single point].

With `COc1ccc(/C=C2\Oc3ccccc3C2=O)cc1` as the molecule, how does the Potency read?
The Potency was “inactive”.

Which Potency does the source give for `O=S(=O)(c1ccccc1)N1CCN(Cc2nnc(-c3ccccc3)o2)CC1` here?
The Potency was “inactive”.

For `Cc1cccc(Nc2nc(N)nc(CCl)n2)c1`, which Potency is on record?
The Potency was inconclusive: 15.8 µM [inhibitor, single point].

For `CCCCC(c1nc2ccccc2[nH]1)N(C(=O)c1ccccc1)c1ccccc1[N+](=O)[O-]` (stereo not drawn), which Potency is on record?
The Potency was inconclusive: 15.8 µM [inhibitor, partial curve, poor fit].

Which Potency does the source give for `COc1ccc(S(=O)(=O)NCCS(=O)(=O)N2CCN(c3ccccc3F)CC2)cc1` here?
The Potency was inconclusive: 35.5 µM [inhibitor, single point].

With `COCCNC(=O)C1(C)CCCN(C(=O)c2ccc(F)c(Cl)c2)C1` (stereo not drawn) as the molecule, how does the Potency read?
The Potency was “inactive”.

For `O=C(CNC(=O)c1ccc(S(=O)(=O)N2CCCC2)cc1)N/N=C/c1ccc(Cl)cc1`, which Potency is on record?
The Potency was “inactive”.

Which Potency does the source give for `Cc1ccc(Cl)cc1N1CCN(C(=O)COc2ccc3c(c2)CCC3)CC1` here?
The Potency was inconclusive: 35.5 µM [inhibitor, single point].

Which Potency does the source give for `CC(C)c1ccccc1NC(=S)NCc1ccncc1` here?
Its Potency is inconclusive: 22.4 µM [inhibitor, single point].

For `O=C(COc1ccc(F)cc1)N(CC1=CCS(=O)(=O)C1)c1ccccc1`, which Potency is on record?
Its Potency is inconclusive: 25.1 µM [inhibitor, single point].

With `Cc1ccc(CSc2nnc(-c3cccc(S(=O)(=O)N4CCOCC4)c3)n2C2CCCC2)cc1` as the molecule, how does the Potency read?
The Potency was inconclusive: 0.316 µM [inhibitor, full curve, poor fit].

With `O=C1[C@H]2[C@@H](c3ccc(Cl)cc3)N3C(=O)N(c4cccc(Cl)c4)C(=O)[C@@]3(Cc3ccc(Cl)cc3)[C@H]2C(=O)N1C1CCCCC1` as the molecule, how does the Potency read?
Its Potency is inconclusive: 0.1 µM [inhibitor, full curve, poor fit].

With `CC(C)(C)c1ccc(C(=O)N/N=C/c2ccccn2)cc1` as the molecule, how does the Potency read?
The Potency was inconclusive: 14.1 µM [inhibitor, single point].

For `Cc1cnc(SCc2ccc(Cl)cc2Cl)[nH]c1=O`, which Potency is on record?
Its Potency is “inactive”.

With `OC(COC(c1ccccc1)c1ccccc1)CN1CCN(c2cccc(Cl)c2)CC1` (stereo not drawn) as the molecule, how does the Potency read?
The Potency was active: 15.8 µM.

For `COc1ccc(C2=NS(=O)(=O)N(C)C(C(=O)NC3CCCC3)=C2)cc1OC`, which Potency is on record?
Its Potency is “inactive”.

For `COCCN(C(=O)Cc1cccs1)C(C(=O)NCc1ccc(OC)cc1)c1ccc(C)cc1` (stereo not drawn), which Potency is on record?
Its Potency is “inactive”.

With `OC(COc1ccc2c(c1)CCC2)Cn1cnc2ccccc21` (stereo not drawn) as the molecule, how does the Potency read?
The Potency was inconclusive: 3.98 µM [inhibitor, single point].

Which Potency does the source give for `OC(c1cc(Cl)cc(Cl)c1)c1ncc(-c2cccc(F)c2)[nH]1` (stereo not drawn) here?
The Potency was inconclusive: 35.5 µM [inhibitor, single point].

With `CCOc1cc(C=O)ccc1OCC(N)=O` as the molecule, how does the Potency read?
Its Potency is “inactive”.

For `CCC1(C)NC(C(=O)O)Cc2c1[nH]c1ccccc21` (stereo not drawn), which Potency is on record?
The Potency was inconclusive: 3.55 µM [inhibitor, single point].

With `CC(=N\NC(=O)c1ccccc1)/C(=N/O)C(=O)Nc1ccccc1` as the molecule, how does the Potency read?
Its Potency is inconclusive: 31.6 µM [inhibitor, single point].

With `COc1ccc(CCNS(=O)(=O)c2ccc(F)c(C(=O)Nc3ccc(Cl)cc3)c2)cc1OC` as the molecule, how does the Potency read?
The Potency was inconclusive: 20 µM [inhibitor, single point].

For `O=C(Nc1ccc([N+](=O)[O-])cc1)Nc1nc(-c2ccc(Cl)s2)cs1`, which Potency is on record?
The Potency was inconclusive: 3.98 µM [inhibitor, full curve, poor fit].

Which Potency does the source give for `O=C(CNC(=O)C1COc2ccccc2O1)N/N=C/c1ccc(O)cc1O` (stereo not drawn) here?
Its Potency is inconclusive: 17.8 µM [inhibitor, single point].

For `COc1ccc(S(=O)(=O)N2CCOCC2)cc1NC(=O)[C@@H]1CCCN1C(=O)c1cccs1`, which Potency is on record?
Its Potency is “inactive”.

Which Potency does the source give for `Nn1c(Cc2cccc3ccccc23)nnc1SCc1ccc(Cl)c(Cl)c1` here?
The Potency was inconclusive: 35.5 µM [inhibitor, single point].

For `Cc1ccc(C(=O)N2CCN(c3ccc(F)cc3)CC2)cc1NC(=O)c1nsc2ccccc12`, which Potency is on record?
Its Potency is inconclusive: 35.5 µM [inhibitor, single point].

For `COC(=O)c1cccc(C#CC(NP(=O)(c2ccccc2)c2ccccc2)c2ccccc2)c1` (stereo not drawn), which Potency is on record?
Its Potency is inconclusive: 22.4 µM [inhibitor, partial curve, poor fit].

Which Potency does the source give for `CC[C@]1(c2ccccc2OC)C(=O)N(C(=O)OC)N1C(=O)OC` here?
The Potency was inconclusive: 35.5 µM [inhibitor, partial curve, poor fit].

For `COc1ccc([C@H]2CC(=O)C=C(c3ccccc3OC)C2)cc1OC`, which Potency is on record?
The Potency was inconclusive: 7.08 µM [inhibitor, partial curve, poor fit].

With `COc1ccc(OC)c(NC(=O)c2sc3nc(Cc4ccccc4)cc(C(F)(F)F)c3c2N)c1` as the molecule, how does the Potency read?
Its Potency is inconclusive: 6.31 µM [inhibitor, single point].

For `CCCCCCN1C[C@@H](n2cc(C3CC3)nn2)[C@H](O)C[C@@H]1c1ccc(Cl)cc1`, which Potency is on record?
The Potency was inconclusive: 35.5 µM [inhibitor, single point].

For `COc1ccc(-c2noc(CCC(=O)N3CCN(c4ccccc4OC)CC3)n2)cc1`, which Potency is on record?
Its Potency is inconclusive: 22.4 µM [inhibitor, single point].

For `CCCCOC(=O)c1ccc(NC(=O)Cc2coc3c(C)c(C)ccc23)cc1`, which Potency is on record?
Its Potency is inconclusive: 11.2 µM [inhibitor, partial curve, poor fit].

With `COc1cccc(C(O)c2nc(-c3cc4ccccc4o3)cs2)c1` (stereo not drawn) as the molecule, how does the Potency read?
Its Potency is “inactive”.

Which Potency does the source give for `CC1CCCCN1CC(O)COCCC12CC3CC(CC(C3)C1)C2` (stereo not drawn) here?
The Potency was “inactive”.

Which Potency does the source give for `CCOC(=O)c1c(C)[nH]c(C)c1S(=O)(=O)N1CCCC(C(=O)Nc2ccc(C)c(N(C)C)c2)C1` (stereo not drawn) here?
Its Potency is inconclusive: 35.5 µM [inhibitor, partial curve, poor fit].

With `CC(=O)N1CCN(S(=O)(=O)c2ccc(Cl)cc2F)CC1` as the molecule, how does the Potency read?
Its Potency is “inactive”.

With `CCOC(=O)c1c(C)[nH]c(C(=O)CN(C)CC(=O)Nc2ccccc2Cl)c1C` as the molecule, how does the Potency read?
Its Potency is “inactive”.

Which Potency does the source give for `CCNC(=O)C1CCCN(c2nnc(C)c3c(C)n(-c4ccc(C)cc4)nc23)C1` (stereo not drawn) here?
The Potency was inconclusive: 7.08 µM [inhibitor, full curve, poor fit].

For `COc1cccc(OCc2cc(C(=O)NCCN3CCCCC3CO)no2)c1` (stereo not drawn), which Potency is on record?
Its Potency is inconclusive: 0.126 µM [inhibitor, full curve, poor fit].

With `CN(C(=O)c1cccc(NC(=O)Cc2ccc(NC(=O)C3CCN(C(=O)C4CCCCC4)CC3)cc2)c1)C1CCCCC1` as the molecule, how does the Potency read?
Its Potency is inconclusive: 35.5 µM [inhibitor, single point].

Which Potency does the source give for `COc1ccc2c(c1)C1NC(=S)NC(C)(O2)C1C(=O)Nc1ccc(C)cc1C` (stereo not drawn) here?
The Potency was “inactive”.

With `O=S(=O)(c1ccc(SCc2ccc(Br)cc2)nc1)N1CCOCC1` as the molecule, how does the Potency read?
Its Potency is inconclusive: 20 µM [inhibitor, single point].

For `COc1cc(Cl)c(C)cc1NC(=O)c1ccc(CN2C(=O)CCn3nc(C)cc32)cc1`, which Potency is on record?
Its Potency is “inactive”.

With `CCOc1ccc(S(=O)(=O)Nc2cccc(C)c2)c2cccnc12` as the molecule, how does the Potency read?
The Potency was “inactive”.

For `O=C1/C(=C/c2ccccc2)SC(=S)N1CC(=O)N1CCCCC1c1cccnc1` (stereo not drawn), which Potency is on record?
Its Potency is inconclusive: 35.5 µM [inhibitor, single point].

Which Potency does the source give for `O=C(NCCCNC(=O)c1cnccn1)c1ccc(Cl)cc1` here?
The Potency was “inactive”.

For `O=C(NCCCn1ccnc1)Nc1ccc2c(c1)OCO2`, which Potency is on record?
The Potency was “inactive”.

Which Potency does the source give for `COc1cc(C(=O)Nc2cc(Cl)ccc2C)c(-n2cnnn2)cc1OC` here?
Its Potency is inconclusive: 20 µM [inhibitor, single point].

With `COc1ccc(/C(C)=N/Nc2nc3ccccc3nc2C)cc1` as the molecule, how does the Potency read?
The Potency was active: 7.94 µM.

For `O=C(Nc1ccc(Cl)c(Cl)c1)OCc1cnc(Cl)s1`, which Potency is on record?
The Potency was inconclusive: 35.5 µM [inhibitor, single point].

For `CC(=O)N1N=C2c3ccccc3CCC2C1c1ccc(F)cc1` (stereo not drawn), which Potency is on record?
The Potency was inconclusive: 25.1 µM [inhibitor, partial curve, poor fit].

Which Potency does the source give for `COc1ccc(OCCNC(=O)c2cccc(Oc3ccc(C(F)(F)F)cc3[N+](=O)[O-])c2)cc1` here?
Its Potency is inconclusive: 7.08 µM [inhibitor, partial curve, poor fit].

With `O=S(=O)(c1ccccc1F)N1CCN(Cc2cc3c(cc2Br)OCCO3)CC1` as the molecule, how does the Potency read?
Its Potency is active: 12.6 µM.

For `O=C(CSc1nnc(-c2ccccc2)o1)c1nnc(-c2ccccc2)o1`, which Potency is on record?
Its Potency is inconclusive: 22.4 µM [inhibitor, single point].

Which Potency does the source give for `O=C1NCCCC1C(=O)N/N=C/c1cc([N+](=O)[O-])ccc1O` (stereo not drawn) here?
The Potency was “inactive”.

Reference: PubChem BioAssay AID588855 (National Center for Advancing Translational Sciences (NCATS), 2011)
